Assay results reported in the supplement of paper PMC3334620.
The full ranking holds about 33,000 sequences; the median of “E-score (-0.5 to 0.5)” is about -0.056, and the highest 2% start at about 0.38. Some of the results follow.

Target: Stb4 (UniProt P50104)
Test: PBM E-score (8-mer binding enrichment) (E-score (-0.5 to 0.5)); higher = stronger / more preferred TF binding; most listed sequences are background and not binding sites
Conditions: protein concentration: 200 nM; construct: GST-DNA-binding domain
Method in brief: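 Using PURExpress in vitro transcription/translation, GST-tagged yeast transcription factors were made in full-length or DNA-binding-domain form. These were applied at about 100-200 nM to double-stranded universal all-10-mer Agilent arrays, and bound protein was detected with fluorescent anti-GST. Scans were normalised with masliner before the Universal PBM Analysis Suite assigned E-scores to ungapped eight-base words pooled with their reverse complements.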

Row | Sequence | PBM E-score
1 | AGTTAATG | -0.199
2 | ACGTGGTC | -0.156
3 | CTTAAGGA | -0.143
4 | ACGTGGCG | -0.165
5 | ATGCTCTC | -0.0992
6 | GTTCGAAC | -0.0708
7 | AGGTGCGG | 0.154
8 | TATATAGA | -0.157
9 | GGTGCACA | -0.108
10 | ATCGAAAG | -0.122
11 | AAGACAGA | 0.0492
12 | AAACATTT | -0.00224
13 | AGGAACCC | 0.0598
14 | ACCGCACT | 0.055
15 | CCTATTTA | -0.0265
16 | CAACAGGA | -0.227
17 | AATAACAG | 0.00683
18 | AGTCGAAG | -0.208
19 | ATACCCGC | 0.328
20 | CTACGGGA | 0.209
21 | ACCTCGCT | -0.13
22 | ACAGACGT | -0.00552
23 | GCCACCCC | -0.0454
24 | CACATATA | -0.145
25 | TGAAGTCA | -0.0018

Row | Sequence | PBM E-score
26 | CATTGATA | 0.117
27 | CACGACAG | -0.238
28 | GCCTATTA | -0.154
29 | CCCTGGAC | -0.151
30 | AATTCTCC | 0.224
31 | CATGAACA | 0.0379
32 | CGTTAGAC | -0.0185
33 | ATTCGCAC | -0.00483
34 | CAAACTCG | 0.125
35 | AGGCCGCG | -0.0789
36 | AGTATGAG | -0.0426
37 | CAAATGAG | -0.152
38 | GAACGGAA | 0.346
39 | ACCGGAAT | 0.294
40 | GATAGAGA | -0.0842
41 | AATATTGG | -0.124
42 | CGGATGCC | 0.337
43 | AGCCCGTC | -0.0989
44 | AAAACGAA | -0.0592
45 | AATGGTTG | 0.02
46 | AGTGTGTC | -0.0648
47 | GTCCGAAA | 0.337
48 | ACACCCGT | 0.229
49 | GGGCTATA | -0.0221
50 | CGCAAGGA | -0.131

Row | Sequence | PBM E-score
51 | ACCACTAA | -0.0511
52 | AAGGTGGT | -0.0395
53 | ACGACAAT | -0.0306
54 | ATTAGAGA | -0.154
55 | CGAACAAG | 0.233
56 | CCAGTCAG | -0.0968
57 | GCATGATA | -0.0594
58 | TGTGCACA | -0.0333
59 | GCAGACGA | -0.153
60 | CCGTTAGA | 0.17
61 | CAACGTAG | -0.195
62 | ATACGACG | 0.0382
63 | CGCTCTTA | 0.00284
64 | CTGACCCA | -0.233
65 | GCGGCACC | 0.179
66 | GCAAGTTA | 0.0966
67 | GCTGCGAC | -0.255
68 | CCCGTTGC | -0.106
69 | CGCGGAGC | 0.163
70 | CATAGTGC | 0.0399
71 | GGTTTGAA | 0.0487
72 | AAGTTAGC | 0.158
73 | ATATTCCG | 0.393
74 | GCAGGCCA | -0.118
75 | AGGGTCTA | -0.0483

Row | Sequence | PBM E-score
76 | GAATATGA | -0.0308
77 | GAAAGAGC | -0.0816
78 | CCCAAACG | -0.227
79 | CCCACGGC | -0.00781
80 | ATGCACGG | 0.109
81 | ACGGGGTC | 0.134
82 | ATTCAGCC | 0.0302
83 | ATCCCACA | -0.128
84 | ACGGCGCA | 0.109
85 | GGTGTAAC | 0.139
86 | CGAAAGAC | 0.127
87 | ACATGAGG | -0.172
88 | CATTAGTC | 0.0554
89 | ACCGTTGG | -0.171
90 | CTTTTACA | 0.0319
91 | AGTGCATC | -0.121
92 | ACAACCCA | -0.073
93 | AAGGCGGA | 0.169
94 | GTAGTTGA | -0.0197
95 | CGTCGACG | 0.129
96 | AAGGGAGG | -0.0163
97 | ACGTTATA | -0.0378
98 | CCAGGATA | -0.118
99 | CATGCGGA | 0.262
100 | AGTGCACC | 0.0754

Row | Sequence | PBM E-score
101 | ACACACAG | -0.134
102 | GTCTACTA | -0.152
103 | ACAACGGC | 0.108
104 | ATGATGAG | -0.202
105 | CAGCACGC | -0.0778
106 | CGCACCCA | -0.0716
107 | CGCTTCAG | -0.0149
108 | GCACCTCA | -0.157
109 | CATCTTAA | -0.202
110 | AAATGACG | 0.0141
111 | CGAGGTAG | 0.0549
112 | CTCAACGC | -0.237
113 | AACCTGAG | -0.0336
114 | AAGCAACT | -0.139
115 | CTATCGCC | -0.204
116 | CGGTGATA | 0.0637
117 | AACCTCCC | 0.0907
118 | GGAATTTA | 0.238
119 | CAGATTCC | 0.0937
120 | CGCTAATC | 0.109
121 | CCGTTAGC | 0.0906
122 | AAAAAACG | 0.13
123 | CATGAGAG | -0.14
124 | ACCCTCGC | -0.131
125 | ATACAATA | 0.203

Row | Sequence | PBM E-score
126 | GTGGATCA | -0.136
127 | ACACCTCC | 0.0307
128 | AGGCGTTG | -0.0398
129 | CTGATGAC | -0.197
130 | ACCAATCT | 0.0037
131 | GCGGATGA | 0.304
132 | CACCTCAC | -0.0152
133 | ATCAGAAG | -0.189
134 | AGGCAGCG | -0.204
135 | GCCGGACC | 0.196
136 | CTTGTATC | -0.0718
137 | TGAGTGAA | -0.295
138 | GATGTCCA | 0.0495
139 | CAAGGAAG | -0.0564
140 | GAGATACC | 0.0426
141 | ATCCCTTG | -0.0393
142 | GTAGGGCA | -0.135
143 | AAATCGTG | 0.0338
144 | GTGAAAGA | 0.0652
145 | TACCGCGA | 0.12
146 | AGTAGTTG | -0.0656
147 | CTGACCTC | -0.0404
148 | GCCCAAGA | -0.0973
149 | AAGATCCT | -0.106
150 | AATTGAGG | -0.128

Row | Sequence | PBM E-score
151 | ATATATCA | -0.0782
152 | ACCAAACT | 0.0246
153 | ACCATGAA | 0.0113
154 | GTGCATAA | -0.019
155 | GTGGTCCA | -0.0876
156 | ATGCCAGA | 0.0106
157 | CGGGCGCC | 0.0786
158 | AGTTGGCC | -0.129
159 | GCTTCCAC | -0.0711
160 | AATCACCC | 0.0941
161 | GCTGTAAC | 0.051
162 | AGAGGGGC | -0.152
163 | AAAGATAC | -0.091
164 | ACCGCCTC | 0.0269
165 | ACAGATCT | -0.207
166 | AAGGTCGC | 0.121
167 | CTATTCAG | -0.288
168 | AAGGCAAC | 0.0357
169 | ACGGGACA | 0.276
170 | CAGATTTA | -0.0167
171 | TACCGCTA | -0.0725
172 | TAGCCGAA | 0.446
173 | CGTGTGGA | 0.0135
174 | CTTAGTCC | 0.056
175 | TCACTAGA | -0.064

Row | Sequence | PBM E-score
176 | AGAACCGC | 0.105
177 | AGACACTC | -0.254
178 | CAGTAATG | -0.287
179 | GTCGCCGA | 0.254
180 | AACCCGTC | -0.0454
181 | GCAGTAAC | -0.0988
182 | ATACTCTA | 0.00093
183 | AAAAACTA | 0.0629
184 | GAGACACA | 0.0418
185 | ACTTCAAC | 0.114
186 | CATTCAAC | -0.218
187 | ATTAGATG | 0.0136
188 | TTAAAGAA | -0.136
189 | CATCCGGC | 0.397
190 | TAAGGGAA | -0.174
191 | ACACCCAC | 0.0222
192 | CCTCGGCC | 0.313
193 | CGTTATAC | -0.142
194 | AGTAACTA | 0.13
195 | CAAATAAG | -0.0233
196 | GGGGGCAA | -0.0508
197 | ACTCCCTG | -0.263
198 | CAGACCTC | -0.129
199 | AAGTCGTA | -0.207
200 | ATATATCG | 0.0307

Row | Sequence | PBM E-score
201 | CAGGGCAA | -0.128
202 | AGTCAACA | -0.0722
203 | AGAGCATC | 0.0281
204 | GGCGGCGA | 0.0554
205 | TACGGCGA | 0.077
206 | GTACAATA | -0.14
207 | CCTATAAC | -0.284
208 | CCGAGTAC | 0.383
209 | AGCATGGA | -0.0965
210 | AGCGACAG | -0.094
211 | CAAAATAG | 0.00967
212 | AAAAGTCT | -0.184
213 | AACGTAAC | -0.0298
214 | CATCAAGA | -0.0861
215 | TGAATACA | 0.0533
216 | TGAGTTAA | -0.113
217 | AATAAAGG | -0.193
218 | AGCTCCTG | -0.175
219 | AGAAGCCG | 0.16
220 | CCCAAGAG | -0.176
221 | AGGGCACC | -0.0434
222 | GCTAGTCA | -0.246
223 | AGCGACTC | -0.109
